The values below come from the supplement of paper PMC10338343.

± gives the standard deviation. Over roughly 5,500 sequences, “pre-steady-state target cleavage rate” has its median near 0.1; the highest 2% begin near 0.64. Only a part is listed here, and it is no random draw.

This assay has as its system MIWI (PIWIL1) piRISC loaded with piRNA #2 (30 nt). Briefly: pre-steady-state target cleavage rate (min^-1); MIWI and MILI are mouse PIWI proteins and EfPiwi is from a freshwater sponge; tags in brackets are library labels; higher = faster piRNA-guided slicing of the target. The conditions noted are these: guide: piRNA #2 5'p-UUAGGUAACCCAGUAGAUCCAGAGGAAUUC; auxiliary factor: 500 nM mouse GTSF1. A digest of the protocol:
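The method was Cleave-'n-Seq, in which uncleaved targets from a transcribed, DNA-blocked target RNA library were sequenced after exposure to active affinity-purified piRISC carrying one synthetic guide, with or without GTSF1 partner protein. Reactions contained 0.1 nM library, 1 nM piRISC and, where present, 500 nM GTSF1 in HEPES–potassium acetate buffer at 33 °C for 0–8 or 0–960 min. Reads were normalised to depth and to weakly complementary targets, three trials were pooled, and k3 was capped at 0.0001 min^-1. The pre-steady-state cleavage rate came from a burst-and-steady-state fit.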
Turning to CAAUUCCUCUGGAUCUUCUGGGUAACCUAA, the “pre-steady-state target cleavage rate” value is 0.0887 ± 0.02.

Regarding CUUAAGCUCAGGUUCUACUGGGUUACCUAA, the “pre-steady-state target cleavage rate” value came to 0.249 ± 0.027.

Consider CUUUUCCUCUGCAUCUAGUGGGUUACCUAA, for which the “pre-steady-state target cleavage rate” value amounted to 0.155 ± 0.017.

Consider CUAUUCCUCUGCAACUACUGGGUUACCUAA, for which the “pre-steady-state target cleavage rate” value turned out to be 0.473 ± 0.045.

As for CUUUUCCUCUGGAUCUACUGGGUUACCCUAA, the “pre-steady-state target cleavage rate” value turned out to be 0.24 ± 0.063.

Consider CAAAUCCUCUGGAUCUACAGGGUUACCUAA, for which the “pre-steady-state target cleavage rate” value came to 0.246 ± 0.027.

Regarding CAAUUCCUCUGGAUCUACUAGGUUACCUAA, the “pre-steady-state target cleavage rate” value was found to be 0.337 ± 0.055.

Turning to CUUAAGGUCUGCAUCUACUGGGUUACCAAA, the “pre-steady-state target cleavage rate” value came out at 0.0687 ± 0.019.

As to CUUAUCCUCUGGAUCAACUGGGUUACGUAA, the “pre-steady-state target cleavage rate” value is 0.506 ± 0.038.

Turning to CUUAAGGUCUGGAUCUACGGGUUACCUAA, the “pre-steady-state target cleavage rate” value came to 0.00716 ± 0.0023.

Turning to CUUAUCCUCUGGUUCUACUGGGUUACCUAA, the “pre-steady-state target cleavage rate” value stood at 0.607 ± 0.047.

In the case of CUAUUCCUCUGGAUCUACUGGCUUUCCUAA, the “pre-steady-state target cleavage rate” value stood at 0.0617 ± 0.017.

CUAUUCCUCUGGAACUACUGGGUUAGCUAA: the “pre-steady-state target cleavage rate” value is 0.3 ± 0.04.

Regarding GAAUUCCUCUGGAUCUACUGCGUAACCUAA, the “pre-steady-state target cleavage rate” value is 0.226 ± 0.056.

Regarding GAAUUCCUCUGGAUCUACUGGGUUAGCAAA, the “pre-steady-state target cleavage rate” value stood at 0.238 ± 0.048.

Take CUUAAGCUCUGGAGUCUACUGGGUUACCUAA: the “pre-steady-state target cleavage rate” value stood at 0.1 ± 0.011.

As for GAAUUCCUCUGGAUCUACUGGCUUACCUUA, the “pre-steady-state target cleavage rate” value was 0.073 ± 0.024.

Regarding GAAUUCCACUGGAUCUACUCGGUUACCUAA, the “pre-steady-state target cleavage rate” value is 0.193 ± 0.022.

On to CUUAAGGACUGGAUCUACUGGGUGACCUAA, for which the “pre-steady-state target cleavage rate” value amounted to 0.063 ± 0.041.

On to CUUAUCCUCUGGAUCUUCUGGGUUAGCUAA, for which the “pre-steady-state target cleavage rate” value was 0.0958 ± 0.024.

As for CUUAUCCUACUGGAUCUACUGGGUUACCUAA, the “pre-steady-state target cleavage rate” value was 0.528 ± 0.065.

As for CUUUUCCUCUGGAACUACUGGGUUUCCUAA, the “pre-steady-state target cleavage rate” value was determined as 0.185 ± 0.06.

On to CUUAUCCUCUGGAUCAACUGGGUUACCAAA, for which the “pre-steady-state target cleavage rate” value came to 0.294 ± 0.041.

As for CUUUUCGCUCUGGAUCUACUGGGUUACCUAA, the “pre-steady-state target cleavage rate” value turned out to be 0.132 ± 0.022.

As for CAUAUUCCUCUGGAUCUACUGGGUUACCUAA, the “pre-steady-state target cleavage rate” value amounted to 0.364 ± 0.053.

For the sequence GAAUUCGUCUGCAUCUACUGGGUUACCUAA, the “pre-steady-state target cleavage rate” value stood at 0.568 ± 0.052.

As to CUUUUCGUCUGGAUCAACUGGGUUACCUAA, the “pre-steady-state target cleavage rate” value was 0.159 ± 0.026.

With CUUAAGCUCUGGAUGUAGUGGGUUACCUAA, the “pre-steady-state target cleavage rate” value was determined as 0.0588 ± 0.013.

In the case of GAAUUCCUCUGGAUCUUCUGGGUAACCUAA, the “pre-steady-state target cleavage rate” value amounted to 0.0767 ± 0.017.

In the case of CUUUACCUCUGGAUCUACUGGCUUACCUAA, the “pre-steady-state target cleavage rate” value turned out to be 0.083 ± 0.01.

Consider CUUAAGGAGACCAUCUACACCGUUACCUAA, for which the “pre-steady-state target cleavage rate” value came to 0.00422 ± 0.0031.

In the case of CUAUUCCUCUGGAUCUACAGGGAUACCUAA, the “pre-steady-state target cleavage rate” value is 0.162 ± 0.02.

As to CUUAAGGUCUGGAUCUAGUGGGAUACCUAA, the “pre-steady-state target cleavage rate” value was determined as 0.0293 ± 0.011.

For the sequence CAAUUCCUCUGGAGCUACUGGGUUACCUAA, the “pre-steady-state target cleavage rate” value is 0.508 ± 0.04.

With CUUAUCCUCUGGAACUACUGGGAUACCUAA, the “pre-steady-state target cleavage rate” value was found to be 0.0808 ± 0.015.

Turning to CUAUUCCUCUGGAUCUACAGGGUUACCAAA, the “pre-steady-state target cleavage rate” value came out at 0.217 ± 0.027.

As for CUUAAGCCCUGGAUCUACUGGGUUACCUAA, the “pre-steady-state target cleavage rate” value is 0.315 ± 0.027.

GAAUUCCUCUGGAUCUACUGGGCUUACCUAA: the “pre-steady-state target cleavage rate” value is 0.119 ± 0.028.

For the sequence CUUUUCCUCUGGAUCUUCUCGGUUACCUAA, the “pre-steady-state target cleavage rate” value was 0.0576 ± 0.0087.

Consider CUUAAGGUCUGGAUCUACUGCCUUACCUAA, for which the “pre-steady-state target cleavage rate” value was 0.0229 ± 0.0068.

With CUUAAGGACUGGAUCUGCUGGGUUACCUAA, the “pre-steady-state target cleavage rate” value was determined as 0.132 ± 0.049.

Take CUUAACCUCUGGAUGUACAGGGUUACCUAA: the “pre-steady-state target cleavage rate” value worked out at 0.366 ± 0.021.

For CUUAUCCUCUGGAUCUACAGGGAUACCUAA, the “pre-steady-state target cleavage rate” value stood at 0.22 ± 0.031.

Consider CUUAUCCUCUGGAUCUACUGGGUUGCCUAA, for which the “pre-steady-state target cleavage rate” value worked out at 0.438 ± 0.043.

Turning to GAAUUCCUCUGGAUGUACUGGGUAACCUAA, the “pre-steady-state target cleavage rate” value was found to be 0.122 ± 0.025.

For the sequence CAAUUCCUCUGGUUCUACUGCGUUACCUAA, the “pre-steady-state target cleavage rate” value is 0.481 ± 0.042.

CUUAAGGACUGGAUCUAGUGGGUUACCAAA: the “pre-steady-state target cleavage rate” value came to 0.0135 ± 0.0075.

Regarding CUUUUCCUCAGGAUCUACUGGGUAACCUAA, the “pre-steady-state target cleavage rate” value is 0.191 ± 0.032.

For CUUAAGCUCUGGAUGUACAGGGUUACCUAA, the “pre-steady-state target cleavage rate” value is 0.208 ± 0.014.

In the case of CUUAAGCUCUGGAUCUACUGGGUUAGGUAA, the “pre-steady-state target cleavage rate” value was found to be 0.0698 ± 0.015.

CUUAAGGACUCGAUCUACUGGGUUACCUAA: the “pre-steady-state target cleavage rate” value stood at 0.0415 ± 0.017.

CUAUUCCUCUGGAUCUACUGGGAUACCAAA: the “pre-steady-state target cleavage rate” value is 0.152 ± 0.042.

With CUUAAGCUCUGGAUCAACUGGGUUACGUAA, the “pre-steady-state target cleavage rate” value is 0.282 ± 0.035.

In the case of CUUAUCCACUCGAUCUACUGGGUUACCUAA, the “pre-steady-state target cleavage rate” value was 0.441 ± 0.028.

As to CAAUUCGUCUGGAUCUACUGGGAUACCUAA, the “pre-steady-state target cleavage rate” value worked out at 0.372 ± 0.053.

CAAUUCCUCUCGAUCUAGUGGGUUACCUAA: the “pre-steady-state target cleavage rate” value was 0.408 ± 0.027.

As for CUUAACCUCUGGAUGUACUGGGUAACCUAA, the “pre-steady-state target cleavage rate” value worked out at 0.112 ± 0.02.

As to GAAUUCCUCUGGGUCUACUGGGUUACCUAA, the “pre-steady-state target cleavage rate” value stood at 0.308 ± 0.042.

Take GAAGUCCUCUGGAUCUACUGGGUUACCUAA: the “pre-steady-state target cleavage rate” value was 0.0909 ± 0.029.

On to CUUAAGCUCUGGAUCUAGAGGGUUACCUAA, for which the “pre-steady-state target cleavage rate” value came out at 0.0118 ± 0.0039.

Consider CUUAUCCUCAGGAUCUAGUGGGUUACCUAA, for which the “pre-steady-state target cleavage rate” value is 0.172 ± 0.032.

Consider CUUUUCCUCUGGAUCUAGAGGGUUACCUAA, for which the “pre-steady-state target cleavage rate” value is 0.022 ± 0.0052.

As to CUUAAGCUCUGUAUCUACUGGGUUACCUAA, the “pre-steady-state target cleavage rate” value stood at 0.154 ± 0.029.

Take CUUUUCCUCUGGAUACUACUGGGUUACCUAA: the “pre-steady-state target cleavage rate” value is 0.377 ± 0.047.

Regarding CUUAAGGAGACGAUCUACUGGGUUACCUUAA, the “pre-steady-state target cleavage rate” value is 0.00391 ± 0.0037.

With CUUAUCCUGUGGUUCUACUGGGUUACCUAA, the “pre-steady-state target cleavage rate” value turned out to be 0.233 ± 0.017.

For CUUAAGGAGACGAUCUUCUGCGUUACCUAA, the “pre-steady-state target cleavage rate” value stood at 0.00297 ± 0.0027.

As for CUUAUCUUCUGGAUCUACUGGGUUACCUAA, the “pre-steady-state target cleavage rate” value was determined as 0.367 ± 0.035.

Turning to CUUAUCCUCUCGAUCAACUGGGUUACCUAA, the “pre-steady-state target cleavage rate” value worked out at 0.508 ± 0.033.

With CUUAUCCUCACGAUCUACUGGGUUACCUAA, the “pre-steady-state target cleavage rate” value amounted to 0.538 ± 0.041.

Consider CUUAAGGUCUGGAUCUACCGGGUUACCUAA, for which the “pre-steady-state target cleavage rate” value was found to be 0.0787 ± 0.0093.

As for CUUAAGGUCUGGAUCUAAUGGGUUACCUAA, the “pre-steady-state target cleavage rate” value came out at 0.125 ± 0.013.

As for CUAUUCCUCAGGAUGUACUGGGUUACCUAA, the “pre-steady-state target cleavage rate” value was 0.577 ± 0.053.
